Experimental data from doi:10.64898/2025.12.24.696337 (2025).

B1: Recombinant OspAST1 ([…]) from B. burgdorferi B31 (domain or fragment)
chain: not shown
In the case of B1, the Kd (LA-2) is reported as 64 nM, the Kd (223-5) is reported as 0.17 nM and the Kd (221-20) is reported as 0.37 nM. The Kd (227-2) was 0.48 nM.
